Assay results as given in PubChem BioAssay AID1476 (National Center for Advancing Translational Sciences (NCATS), 2009).
About 4,500 (2.2%) of roughly 200,000 compounds were called active. Inconclusive means that the source gave no clear call. Such entries were picked first, then a sample of the others. Calls follow the shape of the dose curve; as a rule, active = well fitted inhibition curve with a large enough effect; inconclusive = small, poorly fitted or top-dose-only effect, or effect the other way; inactive = flat fitted curve, though single readings scatter. Potencies of inconclusive entries are doubtful fits and often do not repeat.

What follows are compounds tested against Cruzipain (Trypanosoma cruzi) (UniProt P25779) (assay: qHTS Assay for Promiscuous and Specific Inhibitors of Cruzain (without detergent)). Conditions: purified cruzain, Z-FR-AMC fluorescence, no detergent.
UniProt P25779, sequence (P25779 whole entry, looked up): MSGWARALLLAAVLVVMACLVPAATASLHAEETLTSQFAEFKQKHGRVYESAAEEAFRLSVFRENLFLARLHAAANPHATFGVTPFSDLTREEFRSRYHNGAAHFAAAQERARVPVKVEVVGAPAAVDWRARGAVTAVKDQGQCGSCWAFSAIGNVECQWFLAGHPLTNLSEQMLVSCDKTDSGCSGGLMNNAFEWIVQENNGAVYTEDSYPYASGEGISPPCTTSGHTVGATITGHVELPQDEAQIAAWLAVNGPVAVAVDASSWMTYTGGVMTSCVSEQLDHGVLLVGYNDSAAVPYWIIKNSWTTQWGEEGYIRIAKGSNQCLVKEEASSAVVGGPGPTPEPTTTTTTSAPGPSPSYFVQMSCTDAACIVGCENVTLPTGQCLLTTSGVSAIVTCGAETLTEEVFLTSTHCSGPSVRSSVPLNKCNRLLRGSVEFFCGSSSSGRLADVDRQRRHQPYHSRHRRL
Method in brief: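 Purified cruzain at 1.5 nM, pre-incubated 15 min with compound at room temperature in 100 mM sodium acetate pH 5.5, 5 mM DTT, 0.00005% Triton X-100. Reaction started with 2 uM Z-FR-AMC; AMC fluorescence increase over 60 s gives rate.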
Also: nearly all actives have a fitted effect of over 40% in size.
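For max response, negative = inhibition in this document: plate controls were enzyme without inhibitor for no effect and buffer without enzyme for full effect.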
Potency is read from the fitted curve at half-maximal effect; tags tell the direction and shape of the fitted curve.

Structure (SMILES) | max response, negative = inhibition | Potency
O=c1oc2ccccc2cc1-c1csc(NN=C2CCCC2)n1 | inactive: -11.6% | 
COc1ccc([C@H]2[C@H](C(=O)OC(C)(C)C)N3N=Cc4ccccc4C3C23C(=O)c2ccccc2C3=O)cc1OC (stereo partly drawn) |  | inconclusive: 31.6 µM [activator, single point]
COc1ccc(-n2nnc3c(SCC(=O)Nc4ccc5c(c4)OCCO5)ncnc32)cc1 |  | inconclusive: 39.8 µM [inhibitor, single point]
O=C(COc1ccc(Br)cc1)NCCO |  | inconclusive: 7.94 µM [inhibitor, single point]
Cc1ccc2c(c1)C(c1ccccc1)N(C(=O)Cc1ccc(F)cc1)CC(=O)N2 (stereo not drawn) | inactive: 3.94% | 
COc1cc(C2Nc3c(C)cc(C)cc3-c3cc(C)nn32)cc(OC)c1O (stereo not drawn) |  | inconclusive: 39.8 µM [activator, single point]
O=C(O)CCC/C=C\CC1C2CCC(O2)C1CNNC(=O)Nc1ccccc1 (stereo not drawn) | inactive: 3.99% | 
COC(=O)c1c(NC(=O)CC2SCC(C(=O)OC)NC2=O)sc2c1CCCC2 (stereo not drawn) |  | inconclusive: 31.6 µM [activator, single point]
CCN(Cc1ccccc1)C(c1cc2cc(C)cc(C)c2[nH]c1=O)c1nnnn1CCOC (stereo not drawn) |  | inconclusive: 39.8 µM [activator, single point]
CN(C)c1nc2c(Br)c(Br)c(Br)c(Br)c2[nH]1 | inactive: -5.1% | 
COc1ccccc1CNC(=O)c1ccc2nc(CCc3ccccc3)oc2c1 | inactive: -11.5% | 
O=C(Nc1nc2c(s1)CN(Cc1ccccc1)CC2)c1cccc(S(=O)(=O)N2CCc3ccccc32)c1 |  | inconclusive: 31.6 µM [inhibitor, partial curve, poor fit]
COc1ccc(N2CC(NC(=O)C(c3ccccc3)c3ccccc3)CC2=O)cc1OC (stereo not drawn) |  | inconclusive: 39.8 µM [activator, single point]
CCn1cc2nc(SCC(=O)Nc3ccccc3C(F)(F)F)n(Cc3ccc(C)cc3)c(=O)c2n1 |  | inconclusive: 25.1 µM [activator, single point]
Cc1cc(NC(=O)NC2(C(F)(F)F)Oc3ccc(Cl)cc3O2)no1 (stereo not drawn) |  | inconclusive: 31.6 µM [inhibitor, single point]
CCn1cc(C(=O)N2CCN(c3cccc(C)c3C)CC2)c2cc(OC)c(OC)cc2c1=O | inactive: -3.96% | 
O=C(NC(Cc1c[nH]c2ccccc12)C(=O)N/N=C/c1cccc2ccccc12)c1cccs1 (stereo not drawn) |  | inconclusive: 25.1 µM [inhibitor, single point]
COC(=O)c1ccccc1NC(NC(=O)c1ccco1)C(=O)c1ccc(C)cc1 (stereo not drawn) |  | inconclusive: 5.01 µM [activator, full curve]
